In the supplement of paper PMC11417369:
± gives the standard deviation of the averaged measurements. This is one part of the list.

Each sequence was assayed on PfAP2-I AP2 domain 3 (GST-tagged) (assay: gcPBM binding intensity (ln(normalized median fluorescence intensity)); higher = stronger DNA binding).
Outline: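 In this array assay, P. falciparum DNA-binding domains with a GST tag, expressed in E. coli, were applied for 1 h to primer-extended double-stranded 36-bp intergenic genomic probes and negative controls on an Agilent 4 × 180k array. Bound protein was visualised with Alexa488 anti-GST antibody at 488 nm. Binding intensity is the highest Masliner-normalised natural-log median intensity across replicate spots of either probe orientation.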

| Sequence | gcPBM binding intensity (ln) |
| --- | --- |
| GCTGAAAATAAATGAAGTACACAAGTAATATATATA [XGTACX_site6205] | 8.46 ± 0.64 |
| TAAGCCACCATATTTACACACACATCAAAATGTATT [CACACA_site1815] | 8.01 ± 0.41 |
| ATTCTATATGTTACATAAACCTATATTTTTTTTTTT [CACACA_negctrl_site860] | 7.75 ± 0.46 |
| ATAAAGCCATACAATACACACATTTTACATGTCGGT [CACACA_site3265] | 7.68 ± 0.42 |
| GAAAAAAGAAATTTATGTACATACATATATATATAT [XGTACX_site7888] | 9.33 ± 0.26 |
| ATATGTAAAATATGGGGTACGAAGGTAGGTAGGTAA [XGTACX_site1392] | 8.41 ± 0.74 |
| TATAAATATAAATACTGTACATTATATTATATAATA [XGTACX_site2480] | 7.53 ± 0.38 |
| CGTTACACAAAAATATGTACATATATACATATATAT [XGTACX_site4631] | 7.96 ± 0.45 |
| TAAAAATAATATTAATGTACATTACATATTAATATA [XGTACX_site1019] | 7.4 ± 0.34 |
| TATTCCCCCAAACACACACACACACCCACATACCAC [CACACA_site2304] | 9.19 ± 0.11 |
| ATATATATATATATGTGTACATATTAGTGATATAAT [XGTACX_site7161] | 9.2 ± 0.38 |
| AATGCGCATTTTTTTTTTTTTTTTTTTTTTTTTTTT [XGTACX_negctrl_site258] | 10.05 ± 0.035 |
| ATCATTTAAACAATATGTACTCATTGTAGATATGGT [XGTACX_site5088] | 8 ± 0.23 |
| TGAATAAAATATTATACACACATATGTATTTAACAT [CACACA_site4694] | 7.71 ± 0.35 |
| AATGGGATCATGGTATGTACTTACACAAATGAATTA [XGTACX_site5389] | 7.58 ± 0.54 |
| TTGTATTTACTATACACACACATACATACATACATA [CACACA_site4603] | 8 ± 0.71 |
| TTATTTTTTAATTATATTCAAAATTAAAAAAAAAAA [XGTACX_negctrl_site226] | 7.57 ± 0.72 |
| ATTAAAAAAAAAAAAAAAAAAAAAAAAAAAAAAAAA [CACACA_negctrl_site1060] | 8.37 ± 1.1 |
| ATTGATAAATTAACTAGTACACATATAAATATATTA [XGTACX_site2325] | 7.82 ± 0.28 |
| AATATAAATGTGATTACACACAACAGATTTAAATGG [CACACA_site4802] | 7.92 ± 0.43 |
| TATATTTATTTTCTGTGTACACATATGTTGTGTATT [XGTACX_site7640] | 8.16 ± 0.46 |
| TATATGTATCCATTATGTACATAATAGTAATATAAT [XGTACX_site4008] | 7.76 ± 0.39 |
| TAAAAAATACAAGAGTGTACAAAATTTTTCTAAATG [XGTACX_site5334] | 7.97 ± 0.37 |
| AAAACCTAGTGCATTTGTACATATTTCAATTTTAAA [XGTACX_site4582] | 10.1 ± 0.35 |
